Laboratory results published in the RNAGym collection of RNA variant scans (doi:10.7554/elife.90254).
Read counts are not given, so values of variants with three or more changes are uncertain.

B1: LINE1-mini (parent)
chain: GGCAGAGCUCAACACAGCGUGGCAAAGUGGCUGUGGCUAGACUGCC

Variants of: B1
Experiment: self-cleavage, relative activity (ratio to wild type); higher = more cleavage; in vitro, sequencing; the parent is a self-cleaving ribozyme

Row | Variant | self-cleavage
1 | G7U U32G U43A C46U | 0.1
2 | G7U C10A G22C A26G C31G U32A | 0.01
3 | G7U G21A A41G G44A | 0.23
4 | G7U C8U G17A | 0.3
5 | C8A A14C G27A C42U | 0.16
6 | C8A A11C A25G | 0.04
7 | G7U G21U G40U | 0.13
8 | G7U G19U A41C | 0.21
9 | G7U C10A C15U C23U U32C G33C | 0.03
10 | G7U G29A C31U G35U | 0.01
11 | C8A A11C G22C | 0.02
12 | G7U C15A U20G | 0.01
13 | G7U C13A C15A C37G | 0.1
14 | G7U C8A U9A G17U U32G G44A | 0.26
15 | C8A A16U C23G C37U C46G | 0.34
16 | G7U G17C G21U C45U | 0.33
17 | G7U G22U G36U | 0.07
18 | G7U U20G U32C U38G | 0
19 | G7U G22U C23A A41C C42U C45U | 0.31
20 | G7U G21C G30U G35C G44A | 0.02
21 | G7U C13A G19C | 0.72

Row | Variant | self-cleavage
22 | G7U C13U U20A U32G C37A | 0.08
23 | G7U C15U A24C G44A | 0.07
24 | G7U C10G G17U C18A A26G | 0.03
25 | C8A A16U G40U | 0.25
26 | G7U C8A U38G U43C | 0.09
27 | G7U G17C G21C C31U | 0.02
28 | G7U U28C G44A | 0.2
29 | C8A A16G G22U C37G U38C C46G | 0.01
30 | G7U G22U G29U G35U C45G C46U | 0.1
31 | C8A A16C C23U G30U C46A | 0.28
32 | G7U C18U C37G | 0.03
33 | G7U G21A U28A | 0.06
34 | G7U C31U C45A | 0.1
35 | G7U C18G U28G | 0.12
36 | C8A A24C A26U U38A | 0.21
37 | G7U U9C C13A G36U G44C C45U | 0
38 | G7U C10A C42U | 0.03
39 | G7U C10A C18A G40U | 0
40 | G7U G17A C31U U43C | 0.08
41 | C8A A12G A16G G22C C46U | 0.09
42 | G7U C15A A25U G29U U32G C37U A39U | 0.04

Row | Variant | self-cleavage
43 | G7U C10G U28G G29C A41C | 0
44 | G7U G30C C31U | 0.07
45 | G7U C10A G40C | 0.07
46 | C8A A14G G17U C23G | 0.07
47 | G7U U20G G30A U38A | 0.01
48 | G7U C37A A41G | 0.03
49 | C8A A14U A16U G21U U32G | 0.02
50 | C8A A12C A16U G30U | 0.05
51 | G7U G21U C23U C42U | 0.11
52 | C8A A12C C15G C23A A25U | 0.02
53 | G7U G22U A25G U34G | 0.08
54 | G7U U28A A39G G44U | 0.15
55 | G7U G19C C37A C46G | 0.04
56 | G7U C10G A26C | 0.01
57 | G7U C10A G27U U34C | 0.02
58 | C8A A16G G35U | 0.19
59 | G7U U9A A25C C45U | 0.07
60 | C8A A12U A25G U28C | 0.18
61 | G7U C23A A25G C37U A39C | 0.01
62 | C8A A14C C23A U28G U34G C45U | 0.02
63 | C8A A14G A24U G29A C46U | 0.14

Row | Variant | self-cleavage
64 | C8A A12C C31U | 0.01
65 | G7U C8G A12U | 0.04
66 | G7U C37A C42U | 0.03
67 | C8A A12C U32A G33A | 0.03
68 | G7U G21U G22A C23A A24G G33U | 0.2
69 | G7U C10A U28C U32G U34C | 0.04
70 | G7U G27U U32A C37G G40C | 0.05
71 | G7U C18G U38A | 0.02
72 | G7U G17A C18G G19C U20G G21U C23G A24C G27A | 0.06
73 | C8A A11G C18G G21U A25U | 0.02
74 | G7U G27U A41G G44C | 0.22
75 | C8A A14U A16G C18U | 0.09
76 | C8A A11C G35U | 0.02
77 | G7U U32C G40A | 0.06
78 | G7U U9A C37G A39U | 0.01
79 | G7U C13U G30C | 0.11
80 | G7U C23U U32A | 0.11
81 | C8A A16U G17U | 0.06
82 | G7U C10U A25U | 0.05
83 | G7U U20G G44U | 0.07
